Laboratory results reported in PubChem BioAssay AID2147 (National Center for Advancing Translational Sciences (NCATS), 2009).
The campaign covered roughly 230,000 compounds. About 3,600 (1.6%) were called active. Inconclusive means that the source gave no clear call. Such entries were picked first, then a sample of the others. Calls follow the shape of the dose curve; as a rule, active = well fitted inhibition curve with a large enough effect (not every such curve was filed as active); inconclusive = small, poorly fitted or top-dose-only effect, or another doubt; inactive = no such curve, though single readings can be large or run the other way. Where the call is inconclusive, the potency comes from a doubtful curve fit.
Also: nearly all actives have a fitted effect of over 50% in size.
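For activity change, negative = inhibition in this document: 0% = wells with enzyme and -100% = buffer wells without enzyme.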
Potency is read from the fitted curve at half-maximal effect; tags tell the direction and shape of the fitted curve.

What follows are compounds tested against Lysine-specific demethylase 4E (Homo sapiens) (UniProt B2RXH2) (assay: qHTS Assay for Inhibitors of Human Jumonji Domain Containing 2E (JMJD2E)). Conditions: JMJD2E catalytic domain, FDH-coupled NADH fluorescence (FDH is formaldehyde dehydrogenase); series mostly up to 57.1 µM; activity change, negative = inhibition: at the top concentration.
Sequence of UniProt B2RXH2 (B2RXH2 whole entry, looked up, the tested form may be a part): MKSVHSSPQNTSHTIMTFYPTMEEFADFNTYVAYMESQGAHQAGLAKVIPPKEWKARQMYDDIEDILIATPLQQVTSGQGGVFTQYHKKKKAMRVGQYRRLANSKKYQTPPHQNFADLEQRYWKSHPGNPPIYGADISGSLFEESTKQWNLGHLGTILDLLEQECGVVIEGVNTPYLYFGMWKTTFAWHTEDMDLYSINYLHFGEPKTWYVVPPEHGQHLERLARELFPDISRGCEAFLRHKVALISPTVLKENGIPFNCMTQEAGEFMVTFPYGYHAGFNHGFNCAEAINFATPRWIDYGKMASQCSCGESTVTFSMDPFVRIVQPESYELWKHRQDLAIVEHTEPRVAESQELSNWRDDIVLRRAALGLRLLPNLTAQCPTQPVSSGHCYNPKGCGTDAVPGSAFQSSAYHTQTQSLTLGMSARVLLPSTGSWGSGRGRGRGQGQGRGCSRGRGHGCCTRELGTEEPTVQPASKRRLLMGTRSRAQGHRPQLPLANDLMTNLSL
`Cc1cc([N+](=O)[O-])cc([N+](=O)[O-])c1NCC(C)C` was tested, and the “activity change, negative = inhibition” value was inactive: -19.5%. For `Cc1cc2c(c(=O)n1CC1CCCO1)C(c1ccco1)C(C#N)=C(N)O2` (stereo unspecified), the Potency was inconclusive: 39.8 µM [inhibitor, single point]. For `CC(=O)/C(C#N)=C1\NC(=O)C(Cc2ccccc2)S1` (stereo unspecified), the Potency was inconclusive: 39.8 µM [inhibitor, single point]. With `CCOC(=O)c1cc(-c2ccc(Cl)s2)nc2c1c(C)nn2C` the Potency was inconclusive: 28.2 µM [inhibitor, partial curve]. For `CC(=O)c1ccccc1OCCn1nnc(-c2ccc(C)cc2)n1`, the “activity change, negative = inhibition” value was inactive: -6.3%. For `CCCCC(=O)Nc1ccc2c(c1)nc1n2CCN(CCOC)C1`, the Potency was inconclusive: 25.1 µM [inhibitor, partial curve]. For `CCOC(=O)c1cc2cc(OC)ccc2nc1C`, the Potency was inconclusive: 25.1 µM [inhibitor, partial curve]. In the case of `CCCC(=O)Nc1ccc(NC(=O)c2ccccc2OC)cn1`, the “activity change, negative = inhibition” value is reported as inactive: 8.56%. With `CS(=O)(=O)Nc1ccccc1C(=O)NC1CC2CCC1C2` (stereo unspecified) the Potency was inconclusive: 28.2 µM [inhibitor, partial curve]. With `CCCCC(=O)Nc1ccc(N2CCN(C(=O)CC)CC2)cc1` the “activity change, negative = inhibition” value was inactive: 4.45%. For `Cc1ccccc1COc1ccc(/C=C(\C#N)C(N)=O)cc1`, the Potency was inconclusive: 39.8 µM [inhibitor, single point]. `Cc1c(-c2cccc(NC(=O)c3ccco3)c2)nc2ncccn12` was tested, and the Potency was inconclusive: 28.2 µM [inhibitor, partial curve]. In the case of `COCCCn1c(N)c(-c2nc3ccccc3n2C)c2nc3ccccc3nc21`, the “activity change, negative = inhibition” value is reported as inactive: -20.1%. With `O=c1c2c(-c3ccc([N+](=O)[O-])cc3)csc2nc2n1CCC2` the “activity change, negative = inhibition” value was inactive: 3.19%. `CCC(C)N1C(=O)/C(=C/c2c(NCCCOC(C)C)nc3c(C)cccn3c2=O)SC1=S` (stereo unspecified) was tested, and the Potency was inconclusive: 31.6 µM [inhibitor, single point]. In the case of `COc1ccc(NC(=O)CCCN2C(=O)C3C4C=CC(C4)C3C2=O)c(OC)c1` (stereo unspecified), the “activity change, negative = inhibition” value is reported as inactive: -1.57%. In the case of `CCOP(=O)(OCC)c1nc(-c2ccccc2Cl)oc1N1CCOCC1`, the Potency is reported as inconclusive: 28.2 µM [inhibitor, single point]. `CC(C)Cn1c(N)c(C(=O)NCc2cccs2)c2nc3ccccc3nc21` was tested, and the Potency was inconclusive: 25.1 µM [inhibitor, partial curve]. `COc1cc(CNC2CCCCC2OC)cc(OC)c1` (stereo unspecified) was tested, and the Potency was inconclusive: 28.2 µM [inhibitor, single point]. For `Clc1ccc(CN2CCCCCCC2)cc1`, the Potency was inconclusive: 39.8 µM [inhibitor, single point]. With `COc1cc2oc(=O)ccc2c(OC)c1CC(O)C(C)(C)O` (stereo unspecified) the Potency was inconclusive: 31.6 µM [inhibitor, single point]. With `CC(C)c1ccc(NC(=O)CNCC(c2ccccc2)N(C)C)cc1` (stereo unspecified) the Potency was inconclusive: 20 µM [inhibitor, partial curve]. `Cc1ccc(S(=O)(=O)n2ccc(=O)[nH]2)cc1` was tested, and the “activity change, negative = inhibition” value was inactive: 10.3%. With `N#CC(Cc1ccccc1OC(F)F)c1nc2ccccc2[nH]1` (stereo unspecified) the Potency was inconclusive: 35.5 µM [inhibitor, partial curve]. `COC(=O)c1ccc(CSc2nnc(NC(=O)C3CC(=O)N(Cc4ccc(C)cc4)C3)s2)cc1` (stereo unspecified) was tested, and the “activity change, negative = inhibition” value was inactive: -0.642%. For `COc1cc(N=c2ssnc2Cl)cc(OC)c1OC`, the Potency was active: 17.8 µM. `CC(C)CC(NC(N)=O)C(=O)Nc1ccc2c(c1)OCO2` (stereo unspecified) was tested, and the “activity change, negative = inhibition” value was inactive: -8.83%. For `Cc1ccccc1OCc1nc2ccccc2c(=O)n1NC(=O)c1ccco1`, the “activity change, negative = inhibition” value was inactive: 4.39%. For `O=[N+]([O-])c1ccc(N=Nc2c(Cl)cc(O)cc2Cl)cc1`, the “activity change, negative = inhibition” value was inactive: 13.2%. For `Cc1nc([N+](=O)[O-])c(Sc2nc3ccccc3[nH]2)n1Cc1ccccc1`, the “activity change, negative = inhibition” value was inactive: 2.58%. `COc1ccc(C2NC(c3ccc(OC)cc3)C(c3ccccc3)C(=O)C2c2ccccc2)cc1` (stereo unspecified) was tested, and the “activity change, negative = inhibition” value was inactive: -4.63%. In the case of `C/C(=N\Nc1ncc(Cl)cc1Cl)c1ccc(C#N)cc1`, the Potency is reported as inconclusive: 39.8 µM [inhibitor, single point]. For `CC(C)(C)NC(=O)COC(=O)c1ccccc1Nc1ccc(SC(F)F)cc1`, the Potency was inconclusive: 7.08 µM [inhibitor, single point]. In the case of `NC(=O)CCC(=O)N1CCCC(C(=O)c2ccc3c4c(cccc24)CC3)C1` (stereo unspecified), the Potency is reported as inconclusive: 28.2 µM [inhibitor, partial curve]. In the case of `CCCn1c(-c2ccc(F)cc2)nc2c(N3CCN(C)CC3)nc(C)nc21`, the Potency is reported as inconclusive: 28.2 µM [inhibitor, partial curve]. In the case of `CCO[C@H]1OC(C(=O)O)=C[C@@H](C2CC2)[C@@H]1CCCO`, the “activity change, negative = inhibition” value is reported as inactive: -15.2%. In the case of `COC(=O)c1ccc2nc(-c3ccc(S(C)(=O)=O)cc3)cn2c1`, the Potency is reported as inconclusive: 28.2 µM [inhibitor, partial curve]. With `Cc1cc(/C=N/N2CCN(C)CC2)c(C)n1-c1ccc(Cl)cc1` the Potency was inconclusive: 28.2 µM [inhibitor, single point]. In the case of `COc1ccc(NC(=O)c2ccc3c(c2)NC(=O)CS3)cc1S(=O)(=O)Nc1ccc(Br)cc1`, the Potency is reported as inconclusive: 35.5 µM [inhibitor, single point]. `CN(C)[C@H]1C(=O)C(C(=O)NCN2CCCC2)=C(O)[C@]2(O)C(=O)C3=C(O)c4c(O)cccc4[C@@](C)(O)[C@H]3C[C@@H]12` was tested, and the Potency was active: 11.2 µM. In the case of `C/C(=C\C(=O)c1ccc(F)cc1)Nc1ccc(N2CCOCC2)cc1`, the Potency is reported as inconclusive: 35.5 µM [inhibitor, single point]. With `COCCN(CCOC)c1nc(C)nc2c1nc(-c1ccccc1)n2CCCN(C)C` the Potency was inconclusive: 31.6 µM [inhibitor, partial curve]. `COc1ccc(N2CCN(C3CC(=O)NC3=O)CC2)cc1` (stereo unspecified) was tested, and the “activity change, negative = inhibition” value was inactive: 1.77%. In the case of `C=CC(C1=CC(=O)C(OC)=C(OC)C1=O)c1ccccc1` (stereo unspecified), the Potency is reported as inconclusive: 0.141 µM [inhibitor, full curve]. With `COc1ccc(/C=C(\C#N)C(=O)OC2CCOC2=O)cc1` (stereo unspecified) the Potency was inconclusive: 28.2 µM [inhibitor, single point]. With `COCCn1c(C)cc(C(=O)CSc2nc3ccccc3c(=O)[nH]2)c1C` the “activity change, negative = inhibition” value was inactive: -1.69%. With `CCOc1cc2[nH]c(=O)n(CCCCCC(=O)NCc3ccco3)c(=O)c2cc1OCC` the Potency was inconclusive: 25.1 µM [inhibitor, partial curve]. With `O=c1oc2c(CN3CCOCC3)c(O)c(Cl)cc2c2c1CCC2` the Potency was inconclusive: 7.08 µM [inhibitor, partial curve]. `Cc1cc(C(=O)Nc2ccc(C(=O)O)cc2)c(-c2ccccc2)o1` was tested, and the Potency was inconclusive: 25.1 µM [inhibitor, single point]. For `COc1ccc(-c2ccc(C(C)=O)cc2)cc1[C@H]1[C@H]2C=CC[C@@H](C)[C@@H]2C(=O)N1Cc1ccccc1`, the Potency was inconclusive: 17.8 µM [inhibitor, partial curve]. In the case of `COC(=O)CNc1c(-c2ccccn2)nc2ccc(Br)cn12`, the Potency is reported as inconclusive: 39.8 µM [inhibitor, single point]. In the case of `COc1cc2[nH]c(=O)n(CCC(=O)N3CCc4ccccc4C3)c(=O)c2cc1OC`, the Potency is reported as inconclusive: 31.6 µM [inhibitor, partial curve]. With `CCOc1ccc(CCNC(=O)Cn2ccc3ccccc3c2=O)cc1OCC` the Potency was inconclusive: 39.8 µM [inhibitor, single point]. For `CCOc1ccc(CN2CCNC(=O)C2CC(=O)OC)cc1` (stereo unspecified), the Potency was inconclusive: 39.8 µM [inhibitor, single point]. For `N=c1sccn1CC(=O)Nc1ccccc1-c1ccccc1`, the Potency was inconclusive: 39.8 µM [inhibitor, single point]. For `COc1ccc(N(C(C)C(=O)N/N=C/c2cc(Br)c(C)o2)S(C)(=O)=O)cc1` (stereo unspecified), the “activity change, negative = inhibition” value was inactive: 2.04%. `Cc1ccc(C(=O)OCC(=O)Nc2ccc(N(C)C)cc2)cc1NC(=O)c1ccco1` was tested, and the “activity change, negative = inhibition” value was inactive: 3.9%. In the case of `COc1ccccc1Oc1coc2c(CN3CCN(C)CC3)c(O)ccc2c1=O`, the Potency is reported as inconclusive: 28.2 µM [inhibitor, partial curve]. In the case of `c1ccc(Cn2nnnc2CN2CCN(Cc3ccc4c(c3)OCO4)CC2)cc1`, the “activity change, negative = inhibition” value is reported as inactive: -0.211%. With `COc1ccc(C2=CSC3=NNC4(CCCCC4)NN23)cc1` the Potency was inconclusive: 35.5 µM [inhibitor, single point]. `COc1ccc(C(=O)Nc2cccc(/C=C(\CCC(=O)O)c3nc4ccccc4s3)c2)cc1` was tested, and the Potency was inconclusive: 28.2 µM [inhibitor, partial curve]. In the case of `Nc1cc(=O)[nH]c(SCC(=O)Nc2nnc(-c3ccccc3)s2)n1`, the Potency is reported as inconclusive: 25.1 µM [inhibitor, single point]. For `Cc1cc(C)c2cc(CN(CCO)C(=O)Nc3ccc(Cl)cc3)c(=O)[nH]c2c1`, the Potency was inconclusive: 28.2 µM [inhibitor, single point]. In the case of `Cc1cccc(CNc2ccnc(-c3ccc(N(C)C)cc3)n2)c1`, the Potency is reported as inconclusive: 25.1 µM [inhibitor, partial curve]. `CC(=O)N1CCN(c2ccc(NC(=O)c3ccc(OCc4ccccc4)cc3)cc2)CC1` was tested, and the Potency was inconclusive: 0.891 µM [inhibitor, full curve]. With `CCC(=O)N(Cc1cc2cc(C)c(C)cc2[nH]c1=O)C1CCCCC1` the Potency was inconclusive: 31.6 µM [inhibitor, single point]. With `Cc1ccc(C)c2nc3sc(C(=O)O)cc3cc12` the Potency was inconclusive: 17.8 µM [inhibitor, partial curve]. For `Cc1ccc(C(=O)N(Cc2ccccc2)C(C)(C)C)cc1C`, the “activity change, negative = inhibition” value was inactive: -0.346%. With `CC(C)=NN1C(=O)c2ccccc2NC1(C)C` the Potency was inconclusive: 31.6 µM [inhibitor, partial curve]. `CC(=O)Nc1cccc(-c2csc(Nc3ccc(Cl)cn3)n2)c1` was tested, and the Potency was inconclusive: 39.8 µM [inhibitor, single point]. With `COc1ccc(N(CC(=O)NCc2ccccc2C)S(=O)(=O)c2ccccc2[N+](=O)[O-])c(OC)c1` the “activity change, negative = inhibition” value was inactive: 0.618%.
